Data on 147 sequences can be found in the supplement of paper PMC10126150.

Sequences with one replicate were seen in a single cluster, so their values are uncertain.

The data set relates to ATP. Briefly: switch fluorescence ratio, 500 uM ATP over buffer (Cy3 cluster intensity, sum of 5 cycles each) (fold (ratio)); higher = stronger signal-on switching upon ATP binding; sequences stand for … in TCGTCGGCAGCGTCAGATGTGTATAAGAGACAGTTTTTTTTTTTTTTTTTTTTTTTTT…TC. The conditions noted are these: aptamer strand: ATP DNA aptamer (quencher-CACCTGGGGGAGTATTGCGGAGGAAGG + anchor), 100 nM annealed; ATP concentration: 500 uM; one replicate. The essentials:
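For every switch-domain sequence, the fluorescence ratio is the mean of per-cluster values, each being summed target-cycle Cy3 intensity over summed buffer-cycle Cy3 intensity. Clusters outside 100-1000 RFU were excluded. On a modified Illumina MiSeq flow-cell, the Cy3-labelled switching-strand clusters were annealed to 100 nM quencher-labelled ATP aptamer, imaged in selection buffer and then after 15 min with 500 uM ATP at 22 °C. Five such cycles were run, with NaOH stripping and re-annealing between them.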
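Also: ATP exposure 15 min at 22 °C before imaging.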

For the sequence GGAGGACGCA, the switch fluorescence ratio was 1.21.

Turning to TCATTATGTT, the switch fluorescence ratio came to 0.988.

With AATCGGACAT, the switch fluorescence ratio came to 1.04.

As to TTTTGTCTC, the switch fluorescence ratio worked out at 1.03.

Regarding TTTTACATAT, the switch fluorescence ratio stood at 1.01.

With TTTAGAGTAC, the switch fluorescence ratio stood at 1.06.

For TGACATTATT, the switch fluorescence ratio is 0.965.

Turning to ATTCGTAAGA, the switch fluorescence ratio came out at 0.986.

Consider AGTTGCTCAG, for which the switch fluorescence ratio was 0.989.

On to GCCTTTTACT, for which the switch fluorescence ratio turned out to be 1.

With CTTCTCGTCT, the switch fluorescence ratio was determined as 1.08.

With GGGGACTTCG, the switch fluorescence ratio was found to be 1.01.

As for ACAAATTCAG, the switch fluorescence ratio was 0.969.

As to AGAGTATACT, the switch fluorescence ratio worked out at 0.969.

Consider CGTTACCGTT, for which the switch fluorescence ratio was 0.989.

In the case of TAATTTGGCG, the switch fluorescence ratio was determined as 0.949.

With ATTTGCATAA, the switch fluorescence ratio turned out to be 0.995.

Take CACTGAGCGG: the switch fluorescence ratio was 1.02.

For the sequence GCATAATCCA, the switch fluorescence ratio turned out to be 1.09.

Regarding GGATTCCTCA, the switch fluorescence ratio stood at 1.

Turning to CGATAACGGA, the switch fluorescence ratio was determined as 1.02.

With TCGTGGATCT, the switch fluorescence ratio came to 0.971.

Consider CCTTTTAGG, for which the switch fluorescence ratio turned out to be 1.01.

As for CCTTACCAGG, the switch fluorescence ratio was 2.2.

In the case of CATTTTCCGA, the switch fluorescence ratio came to 1.01.

In the case of TCGTAGGGTG, the switch fluorescence ratio is 1.13.

Turning to GGCTGTTTCG, the switch fluorescence ratio was 0.946.

In the case of TAAGACGCTA, the switch fluorescence ratio is 1.13.

With ATGTGGTTCG, the switch fluorescence ratio came to 0.998.

Regarding CTTTGTCTTG, the switch fluorescence ratio was determined as 0.942.

As to CGCGAGTGGG, the switch fluorescence ratio came to 1.03.

In the case of TTGTGTGGCC, the switch fluorescence ratio came out at 0.944.

CATAGAATG: the switch fluorescence ratio worked out at 1.03.

As to ATTGGATTTG, the switch fluorescence ratio turned out to be 1.01.

In the case of ATCGTTTTTG, the switch fluorescence ratio was 0.96.

For TAATGGGAGG, the switch fluorescence ratio is 0.965.

With TGCGCTGAGC, the switch fluorescence ratio came to 1.05.

For the sequence AATATAATTA, the switch fluorescence ratio stood at 0.985.

Take TCCTAATCAG: the switch fluorescence ratio was found to be 1.01.

As to GTTAATTGAC, the switch fluorescence ratio came to 0.958.

Turning to GAGGATACGT, the switch fluorescence ratio amounted to 1.03.

Take ATTTAAAAAT: the switch fluorescence ratio is 1.

With GTGCAGCGGC, the switch fluorescence ratio amounted to 1.04.

On to GCATCTTGCC, for which the switch fluorescence ratio came to 0.993.

Regarding TAGAGGCTAT, the switch fluorescence ratio came out at 0.981.

For GACCCATCCT, the switch fluorescence ratio was 1.17.

With GTGTCGCCTT, the switch fluorescence ratio was determined as 0.992.

As for TCGGGTATCA, the switch fluorescence ratio was determined as 1.

For the sequence TCCGAATGTA, the switch fluorescence ratio amounted to 1.15.

On to TGGGGAGAGT, for which the switch fluorescence ratio amounted to 0.998.

For the sequence ACGTATACT, the switch fluorescence ratio turned out to be 1.37.

On to GCCGCTATCG, for which the switch fluorescence ratio worked out at 1.09.

Take TGATGTGAT: the switch fluorescence ratio was determined as 0.969.

With GCATATCG, the switch fluorescence ratio is 0.996.

Consider TATTGGCACG, for which the switch fluorescence ratio is 0.987.

AGGAAGGTAA: the switch fluorescence ratio is 1.02.

As for ATAGAGGGCT, the switch fluorescence ratio came out at 0.985.

GTATATTTGG: the switch fluorescence ratio was 0.948.

Turning to AAGTGCAAC, the switch fluorescence ratio is 0.996.

Take TGTTCCCTAG: the switch fluorescence ratio was 1.02.

On to ATATATCCCG, for which the switch fluorescence ratio amounted to 0.976.

In the case of AGAAGCTCCT, the switch fluorescence ratio came out at 0.981.

Consider TTTCGATCAT, for which the switch fluorescence ratio amounted to 0.969.

Consider GGTGTGAAGA, for which the switch fluorescence ratio came out at 1.05.

Take CCGATAAAC: the switch fluorescence ratio turned out to be 1.19.

Take CCTAGCGCTT: the switch fluorescence ratio is 1.75.

In the case of CGGCAGTTGA, the switch fluorescence ratio worked out at 1.06.

With TTTCGAATGG, the switch fluorescence ratio worked out at 0.997.

Take CAGCGCGCCG: the switch fluorescence ratio is 0.975.

As for AGGACATCAG, the switch fluorescence ratio came out at 1.06.

As for TGGCACGTCC, the switch fluorescence ratio is 1.02.

Consider CCTGGTGGCG, for which the switch fluorescence ratio amounted to 0.975.

TCATAAGAG: the switch fluorescence ratio came out at 1.02.

In the case of TACGTTAAGT, the switch fluorescence ratio came out at 1.02.

Consider GACGGTGGGG, for which the switch fluorescence ratio turned out to be 0.947.

Take TTACACAGCA: the switch fluorescence ratio is 1.06.

GCCGAAATAG: the switch fluorescence ratio was determined as 2.46.

As to CCCATTTTCG, the switch fluorescence ratio turned out to be 1.01.

As for ATTGATTATT, the switch fluorescence ratio amounted to 0.987.

As for CCTGAGGCCA, the switch fluorescence ratio came out at 1.07.

On to AAGGAGTCCT, for which the switch fluorescence ratio stood at 1.02.

As for AGACCGAAGC, the switch fluorescence ratio turned out to be 1.37.

On to AGTCCAATTG, for which the switch fluorescence ratio turned out to be 1.

Consider CCAAGGAATG, for which the switch fluorescence ratio was determined as 1.03.

Regarding GGGTCTGCGG, the switch fluorescence ratio amounted to 1.01.

As to TTCCTATTTC, the switch fluorescence ratio was 1.07.

GCCGGGAGCG: the switch fluorescence ratio was 1.

For the sequence TGCCGGATAT, the switch fluorescence ratio amounted to 1.04.

Consider ATTTGAGGCT, for which the switch fluorescence ratio was found to be 1.06.

With ATCGTACTCG, the switch fluorescence ratio is 1.04.

In the case of ATTTTGAATT, the switch fluorescence ratio is 1.04.

CAGGCTAGAG: the switch fluorescence ratio was 1.04.

Consider TCCGAGGGGA, for which the switch fluorescence ratio was 1.65.

Consider GGCACCCATA, for which the switch fluorescence ratio came out at 1.02.

Turning to GCCCTGTCAG, the switch fluorescence ratio is 1.02.

Consider TCATTTTACA, for which the switch fluorescence ratio amounted to 1.01.

On to CCAGGGATGT, for which the switch fluorescence ratio is 1.1.

TCTACAGCTT: the switch fluorescence ratio worked out at 1.08.

Consider AGGGGTTATT, for which the switch fluorescence ratio was determined as 0.986.

CTTTGGTTTG: the switch fluorescence ratio was 1.

Consider CAGGTCATAA, for which the switch fluorescence ratio was 0.99.

As for TACCCTGCTT, the switch fluorescence ratio came out at 1.06.

In the case of AGCGTTATGT, the switch fluorescence ratio was 1.01.

Take GTGCACTGGA: the switch fluorescence ratio turned out to be 1.07.

Regarding GCAGAACCCT, the switch fluorescence ratio worked out at 1.36.

As for CAAACGTTAA, the switch fluorescence ratio was 1.28.

Turning to TGGGCTGAGT, the switch fluorescence ratio turned out to be 1.01.

As for TCATAAACAG, the switch fluorescence ratio worked out at 0.994.

As to ACGCTATGCT, the switch fluorescence ratio came to 1.95.

In the case of ACGGTGCTT, the switch fluorescence ratio stood at 1.13.

For the sequence GAATCGGATG, the switch fluorescence ratio stood at 0.994.

Consider AACAACCAGA, for which the switch fluorescence ratio worked out at 1.03.

Consider TTCGACTTCT, for which the switch fluorescence ratio amounted to 1.08.

Regarding ACAGACGGG, the switch fluorescence ratio amounted to 0.985.

As to AGGTCCCTTA, the switch fluorescence ratio stood at 0.966.

As for CAACAGGCTG, the switch fluorescence ratio was 1.04.

Turning to AACTGATTTT, the switch fluorescence ratio was 1.03.

Take ATCAGAGATT: the switch fluorescence ratio came to 1.03.

For GACTTGTGCA, the switch fluorescence ratio was 0.961.

ATGGTCATGG: the switch fluorescence ratio turned out to be 1.04.

On to CCTAAACCAA, for which the switch fluorescence ratio was found to be 1.11.

Turning to TCAATTCCTG, the switch fluorescence ratio was 1.07.

As to ATCGTTTTCG, the switch fluorescence ratio was 0.949.

For the sequence GTCATAACTC, the switch fluorescence ratio is 1.06.

GAACGAGGCA: the switch fluorescence ratio is 1.01.

For the sequence CGTGCGCCGG, the switch fluorescence ratio amounted to 1.04.

GTGTTAATAG: the switch fluorescence ratio came to 1.01.

For the sequence AGCCTCGCGT, the switch fluorescence ratio was found to be 1.

As for CGCCGAATGG, the switch fluorescence ratio was determined as 1.05.

For the sequence TGCGCGAATT, the switch fluorescence ratio amounted to 1.

As to TAGCATGCCC, the switch fluorescence ratio is 1.09.

As to GTCATGCGGC, the switch fluorescence ratio was found to be 0.961.

For the sequence GGAGAGGGAT, the switch fluorescence ratio amounted to 0.982.

For the sequence CTTCGAGGAC, the switch fluorescence ratio was found to be 1.03.

Consider TGAGGACGTC, for which the switch fluorescence ratio turned out to be 1.03.

Regarding TTGGGGCTAC, the switch fluorescence ratio was 1.38.

For the sequence AAGGGCAACT, the switch fluorescence ratio was 0.996.

Take CCGACGATTT: the switch fluorescence ratio is 5.09.

ATAATTATTG: the switch fluorescence ratio is 1.

As for CGCGGGTAAT, the switch fluorescence ratio amounted to 0.998.

For TCATTAGTAG, the switch fluorescence ratio is 0.98.

For the sequence TATACTGGAC, the switch fluorescence ratio worked out at 1.24.

In the case of GAGTATAGTA, the switch fluorescence ratio was found to be 1.07.

In the case of TTAATCGACG, the switch fluorescence ratio was 0.942.

As to CTTTTACGCA, the switch fluorescence ratio is 1.32.

For CCGCTGCTCT, the switch fluorescence ratio came out at 2.46.

For GCTTAATCAA, the switch fluorescence ratio is 1.03.
